# Measured values published in article PMC5472784, “Pyrazinamide and derivatives block ethylene biosynthesis by inhibiting ACC oxidase” (Nature Communications, 2017).
# Key:
# Assay type in all cases: binding
# AtACO2 K161A/A251L = AtACO2 K161A/A251L (Arabidopsis thaliana, UniProt Q41931, A251L/K161A); details: ITC, in the presence of Zn2+
# Procedure: (§1) ITC experiments were performed using a MicroCal iTC200 (GE Healthcare) at 25 °C. Small molecules and proteins were in the same buffer containing 25 mM Bis–Tris (pH 6.0), 150 mM NaCl, 0.1 mM ZnCl2 (or 0.2 mM FeSO4 for POA and AtACO2). The concentration of small molecules in the syringe was 1 mM, and the concentration of proteins in the cell was 90 μM. Data were analysed with a one-site model using Origin 7.0 (OriginLab).
# AtACO2 K161A = AtACO2 K161A (Arabidopsis thaliana, UniProt Q41931, K161A); details: ITC, compared with wild-type AtACO2
# Procedure: as §1
# AtACO2 H180A = AtACO2 H180A (Arabidopsis thaliana, UniProt Q41931, H180A); details: ITC, in the presence of Zn2+
# Procedure: as §1
# AtACO2 K161A/F253A = AtACO2 K161A/F253A (Arabidopsis thaliana, UniProt Q41931, F253A/K161A); details: ITC, in the presence of Zn2+
# Procedure: as §1
compound,measurement,setting,value
"O=C(O)c1ccccn1 [2-PA, 2-picolinic acid]",binding to AtACO2 K161A/A251L,AtACO2 K161A/A251L,completely abolished binding
same,binding to AtACO2 K161A,AtACO2 K161A,reduced the binding
same,interaction with AtACO2 H180A,AtACO2 H180A,abolished the interaction
same,binding to AtACO2 K161A/F253A,AtACO2 K161A/F253A,completely abolished binding
"O=C(O)c1cnccn1 [POA, pyrazinecarboxylic acid]",binding to AtACO2 K161A/A251L,AtACO2 K161A/A251L,completely abolished binding
same,binding to AtACO2 K161A,AtACO2 K161A,reduced the binding
same,interaction with AtACO2 H180A,AtACO2 H180A,abolished the interaction
same,binding to AtACO2 K161A/F253A,AtACO2 K161A/F253A,completely abolished binding
